# Test results as given in ChEMBL document CHEMBL4888484, “Replenishing the malaria drug discovery pipeline: Screening and hit evaluation of the MMV Hit Generation Library 1 (HGL1) against asexual blood stage Plasmodium falciparum ,using a nano luciferase reporter read-out” (2022).
# The campaign covered roughly 150,000 compounds. About 540 (0.36%) showed an effect of 50% or more. Some of the results follow.
# System: Plasmodium falciparum
# Assay: Primary screen in NF54 nanoGlo assay, in single point, at 2uM, 72h; a lower Z score goes with more inhibition
# Format: functional, Erythrocyte
# Details: timepoint 72 hour
Compound,% Inhibition [%],Z score
Cc1cccc(C)c1CN(C)C(=O)N[C@@H](C)c1n[nH]c(=O)n1C,15,-1.85
CCOc1ccccc1OC/C=C/CNC,-4,0.39
O=C(NCc1cccnc1)c1nnn2c1c(=O)[nH]c1cc(F)ccc12,2,-0.42
O=C(O)c1ccc2c(c1)C[C@@H](c1ccccc1)NC2=O,-20,2.62
COC(C(=O)N1CCOCC1c1nc2ccccc2s1)C1CC1 (stereo not drawn),-4,0.53
N#Cc1cccc(C(=O)N2CCC[C@H]2c2nc(CCOCC3CCCC3)no2)c1,0,-0.03
COCCN1CCc2c(C)nc3c(-c4ccc(OC)c(OC)c4)cnn3c21,44,-5.65
N#Cc1cnc(N[C@H]2CC[C@H](Nc3cnc(C#N)cn3)CC2)cn1,-17,3.22
NCCCN(c1ccccc1)c1ncccn1,-5,0.62
N#Cc1ccc(-c2nc(CC(N)=O)nn2C2Cc3ccccc3C2)cn1,-1,0.19
COc1ccc(-n2nc(C)c3sc(N4CCN(C(=O)c5ccccc5F)CC4)nc32)cc1,-9,1.06
O=C(O)[C@@H]1CN(C(=O)Cc2ccccc2Cl)c2ccccc2O1,-9,1.28
Cc1ccn(-c2ccnc(N3CCN(c4ccccc4F)CC3)n2)n1,-11,1.65
CCC(CC)C(=O)N1CCN(c2cc(-n3ccc(C)n3)ncn2)CC1,-8,0.9
C[C@@]1(C(=O)NCc2ccccc2)CCC(=O)N1CCc1cccs1,-1,0.08
COc1cccc(CC(=O)N2CC3CC2CO3)c1 (stereo not drawn),-7,0.84
CC(C)(C(=O)N1CCO[C@@H](CC(=O)O)C1)c1cccs1,1,-0.08
Cn1cc2c(n1)c(=O)n(Cc1ccc(Cl)cc1)c1nn(Cc3ccccc3F)c(=O)n21,4,-0.5
CCCCc1nc(C)sc1C(=O)Nc1ncc[nH]1,26,-2.91
CCC(C)Oc1ccc(CN2C[C@H]3C[C@H](O)[C@@H](O)C[C@H]3C2)cc1Cl (stereo partly drawn),-3,0.43
C=CCn1c(-c2ccc(F)cc2)cn2cc(C(=O)N3CC(O)C3)nc2c1=O,-3,0.53

Compound,% Inhibition [%],Z score
Cc1ccc(CN(C(=O)COc2ccc(Cl)c(C)c2)c2ccccn2)o1,9,-1.06
Cc1ccc(CN[C@@H](C)c2nccnc2C)c(Cl)c1,-13,2.63
Clc1cccc(-c2cn[nH]c2[C@H]2CCCNC2)c1,1,-0.27
CCC[C@@]1(C(=O)OCC)CCCN1Cc1csc(CC(=O)NC)n1,-8,0.97
Cc1ccccc1[C@@H](C)C(=O)NC1(c2nnn[nH]2)CC1,0,-0.07
COc1cccc(CC[C@H]2CCCN(S(=O)(=O)N(C)C)C2)c1,11,-2.17
COc1ncccc1C(=O)N1C2C=CCC1CC2 (stereo not drawn),1,-0.24
O=C(Cc1cnn2ccccc12)N1CC[C@@H]2CC[C@@]21c1cccnc1,-10,1.67
Cc1ccc(N2N=C(C(=O)Nc3ccc4c(c3)C(=O)N(C)C4=O)CCC2=O)cc1Cl,-10,1.71
Cc1c(NC(=O)C2=COCCO2)c(=O)n(-c2ccccc2)n1C,9,-1.23
Cc1ccc(O[C@H]2CCCN(C(=O)c3ccsc3)C2)nn1,-9,1.55
NC(=O)N1CCC(NC(=O)C2CC2c2cc(Cl)cc(Cl)c2)C1 (stereo not drawn),15,-1.93
O=C(Nc1cccc(C2CCOCC2)c1)c1cccnc1O,2,-0.24
C[C@H](NCCc1cccc2cccnc12)c1ccc(-n2cnnn2)cc1,3,-0.42
CC(C)N(CC(F)(F)F)C(=O)Cn1nnnc1C1CC1,6,-1.03
CCC(=O)N1CCCN(c2ccc(C#N)nc2)CC1,-10,1.3
COCCCNC(=O)Cc1c(C)n(C)c2nc(-c3ccccc3)nn2c1=O,-10,0.98
Cc1noc(C)c1CC(=O)O[C@@H](C)C(=O)N1CC(=O)Nc2ccccc21,-31,3.61
O=C(Nc1ccc(F)cc1Br)c1cnc(OC2CCOCC2)c(Cl)c1,1,-0.08
O=C(c1cc2ncccn2n1)N1CCc2ccccc2C1,36,-1.16
CC(=O)Nc1ccc(-c2c(C(C)C)nn(-c3cccc(F)c3)c2OC(C)=O)cc1,-7,1.21

Compound,% Inhibition [%],Z score
O=C(COc1ccc(Nc2ccccc2)cc1)N1CCN(S(=O)(=O)c2cccc(F)c2)CC1,1,-0.15
CN1N=C(C(=O)Nc2cc(CCc3ccccc3)ccn2)CCC1=O,-10,1.79
O=C(Nc1ccccc1Cl)N1C[C@@H]2C[C@H](NS(=O)(=O)c3ccccc3)[C@H]1C2,30,-3.36
CCOC(=O)C[C@H]1COCCN1C(=O)c1cn(C(c2ccccc2)c2ccccc2)nn1,-10,1.28
NC(Cc1ccccc1)=NOCC(=O)NC1CCCCCC1,-31,3.65
CC(C)(C)c1ccc(Cn2cnc3c2c(=O)n(C2CC2)c(=O)n3-c2ccc(F)cc2F)cc1,0,0.05
CN1N=C(C(=O)N2CC3CCCCC3C2)CCC1=O (stereo not drawn),-11,1.41
CC[C@H](Nc1nc(C)nc2c1cnn2C)c1nc2ccccc2[nH]1,3,-0.47
CO[C@@]12CC[C@H](O)C[C@@H]1N(C(=O)c1nccn1C)CC2,-15,1.99
CCCCn1c(N)c(N(CCOC)C(=O)c2cc(-c3ccc(OC)cc3)nc3ccccc23)c(=O)[nH]c1=O,-6,0.7
CC(C)c1nnc2c3ccccc3nc(N3CCN(C(=O)c4ccc(Cl)cc4)[C@@H](C)C3)n12,-1,0.12
CC(C)c1noc(NC(=O)N[C@H]2CCN(CC(F)F)C2)n1,-5,0.98
C[C@@H](COC(=O)c1ccc2nncn2c1)COc1ccccc1,-9,1.56
O=C1C[C@@H](c2ccccc2)N(C(=O)Cc2cccc(O)c2)CCN1,-9,1.05
CN(Cc1ccsc1)C(=O)c1ccc2nc(C3CCCCC3)oc2c1,-13,1.58
COc1ccccc1-c1cc(C(=O)NC2CCN(Cc3ccccc3)CC2)nc2cc(C(C)(C)C)nn12,-8,0.88
Cc1cc(Br)oc1C(=O)N1CCN(c2oc(C3CC3)nc2C#N)CC1,-10,1.95
COCCN(CC(=O)N1CCc2sccc2[C@@H]1COc1cccc(F)c1)C(=O)C(C)C,-19,3.67
CC(C)CCN[C@@H]1C[C@@H](O)[C@H](CO)[C@H]1Cc1ccnc(-c2ccccc2F)n1,34,-3.85
COCc1nc([C@@H]2CCCN3CCCC[C@H]23)n(CC(C)(C)O)n1,-30,2.67
CN(C)S(=O)(=O)N1C[C@H]2CC[C@@H](C1)N(Cc1cc3ccccc3o1)C2,4,-0.54

Compound,% Inhibition [%],Z score
Cc1nc(N(C)C[C@H](C)C(=O)O)c(Cl)cc1C#N,-10,0.98
FC(F)(F)c1ccc(Oc2ccc(-c3ccccc3)cc2)nc1,-3,0.38
COc1cc(F)ccc1CN[C@@H](C)c1n[nH]c(C)n1,-11,1.34
CN(Cc1ccccc1)S(=O)(=O)c1cc(C(=O)N2CCCC2)cs1,-10,0.99
NC(=O)c1cncc(N2CCC[C@H]2c2ccccc2Br)n1,0,-0.04
Cc1ccc(NC(=O)CN2C(c3ccccc3)=C[C@@H](c3ccc(C)cc3)n3nnnc32)cc1,-20,1.96
COc1ccc(C(=O)N2CCn3nc(Cc4ccccc4)cc3C2)cn1,2,-0.37
COc1ccc(NCC(=O)Nc2ncc(Cc3cccc4ccccc34)s2)cc1,-3,0.34
O=C(CN1C(=O)COc2ccc(Cl)cc21)Nc1cccc(-c2nnco2)c1,-14,1.88
Cc1c(CCNC(=O)N2CCC(C)CC(C)C2)cnn1C (stereo not drawn),4,-0.5
CC(NC(=O)C1(O)CCCC1)C1COc2ccccc21 (stereo not drawn),-2,0.27
Cc1cnc(CNC(=O)C2Cc3ccccc3C2)o1,-5,0.94
Cc1nc(NCc2ccc(F)cc2)nc2c1C(=O)c1ccccc1-2,-6,0.85
CCCc1cc(C(=O)NC(C)(C)CCC(=O)NC)n[nH]1,2,-0.47
Cc1nnsc1CNC(=O)[C@H]1CCN(c2ccc(C(F)(F)F)cn2)C1,-30,2.67
C[C@@H](CN(C)C(=O)NCc1nnc2ccccn12)c1nccs1,-2,0.3
Cc1cccc(N(C)S(=O)(=O)c2cnn(C3CCC3)c2)n1,-6,1.11
CC[C@@H](CO)NC(=O)N[C@H]1C[C@H](c2ccccc2C)C1,-2,0.38
O=C(NCC1CCCCC1O)C(=O)Nc1cccc2c1CCCC2 (stereo not drawn),-5,0.46
C=CCn1cc(CNCCCC(C)(C)CO)c(C)n1,-9,0.87
CC(C)(C)n1ncnc1NC(=O)Cn1cccn1,-1,0.13
